Laboratory results: the RNAGym collection of RNA variant scans (doi:10.1073/pnas.2313332121)
This sample is rich in variants without activity.

B1: TPR 5TU (parent)
chain: GGAUCUUCUCGAUCUAACAAAAAAGACAAAUCUGCCACAAAGCUUGAGAGCAUCUUCGGAUGCAGAGGCGGCAGCCUUCGGUGGCGCGAUAGCGCCAACGUUCUCAACUAUGACACGCAAAACGCGUGCUCCGUUGAAUGGAGUUUAUCAUG

Variants of: B1
Experiment: polymerase ribozyme fitness, log enrichment relative to wild type (log ratio); higher = more active; in vitro selection for triplet polymerase activity
Summary of the method: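 Streptavidin-bead capture of gel-excised extended constructs, followed by RT-PCR, closed a single triplicate in vitro selection round. That round began by annealing PCR-built, transcribed mutant libraries of each subunit of a heterodimeric triplet polymerase ribozyme with a biotinylated primer, the partner subunit and triplets, then incubating them frozen at −7 °C. After Illumina sequencing of inputs and outputs, genotypes needed ≥10 input reads and ≥1 read per output. Fitness is the base-2 logarithm of genotype enrichment over wild-type enrichment, using inverse-variance-weighted replicate averages.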

Polymerase ribozyme fitness (log ratio), ≤ -4.2:
GGAUCUUCUCGAUCUAACAAAAAAGACGAGUCUGCCACAAAGCUUGAGAACAUCUUCGGAUGCAGAGGCGGCAGCCUUCGGUGGCGCGACAGCGCCAACGUUCUCAACUAUGACACGCAAAACGCGUGCUCCGUUGAAUGGAGCUUAUCAUG [A28G A30G G50A U90C U144C]
GGAUCUUCUCGAUCUAACAAAAAAGACGAUUAUGCCACAAAGCUUGAGAGCAUCUUCGGAUGCAGAGGCGGCAGCCUUCGGUGGAGCGAUAGCGUCAACGUUCUCAACUAUGACUCGCAAAACGCGUGCUCCGUUGAAUGGAGUUUAUCAUG [A28G A30U C32A C85A C95U A115U]
GGAUCUUCUCGAUCUAACAAAAAAGACGAUUCUGCCACAAAGCUUGAGACCAUCUUCGGAUGCAGAGGCGGCAGCCUUCGGUCGCGCGAUAGCGCCAACGUUCUCAACUAUGACACGCAAAACGCUUGCUCCCUUGAAUGGAGUUUAUCAUG [A28G A30U G50C G83C G126U G133C]
GGAUCUUCUCGAUCUAACAAAAAAGACGAAUCUGCCCAAAAGCUUGAGAGCAUCUACGGAUGCAGCGGCGGCAGCCUUCGGUGGCGCGAUAGCGCCAACGUUCUCAACUAUGACACGCAAAUCGCGUGCUCCGUUGAAUGGAGUUUAGCAUG [A28G A37C C38A U56A A66C A122U U148G]
GGAUCUUCUCGAUCUAACAAAAAAGACGAAUCUGCCGCAAAGCUUGAGAGCAUCUUCGGAUGCAGAGGCGGCAGCCUUCGGUGGCGGGAUAGCGCCAACGUUCUCAACUAUGACAUGCCAAACGCGUGCUCCGUUGAAUGGAGUUUAUCAUG [A28G A37G C87G C116U A119C]
GGAUCUUCUCGAUCUAACAAAAAAGACGAAUCUGCCUCAAAGCUUGAGAGCAUCUUCGGAUGCAGAGGCGGCAGCCUUCGGUGGCGCGAUAGCGCCAACGUUCUCAACUAUGACAGGCAAAACGCGUGAUCCGUUGAAUGGAGUUUAUCAUG [A28G A37U C116G C129A]
GGAUCUUCUCGAUCUAACAAAAAAGACGAAUCUGCCACCAAGCUUGAGAGCAUCUUCGGAUGCAGAGGCGGCAGCCUUCGGUGGCGAGAUAGCGCCAACGUUCUCAACUAUGACACACAAUACGCGUGCUCCGUUGAAUUGAGUUUAUCAUG [A28G A39C C87A G117A A121U G140U]
GGAUCUUCUCGAUCUAACAAAAAAGACGAAUCUGCCACAUAGCUUGAGCCCAUCUUCGGAUGCAGAGGCGGCAGCCUUCGGUGGCGAGAUAGCGCCAACGUUCUCAACUAUGACACGCAAAACGCGUGCUCCGUUGAAUGGAGGUUAUCAUG [A28G A40U A49C G50C C87A U144G]
GGAUCUUCUCGAUCUAACAAAAAAGACGAAUCUGCCACAAAGCUUGAGUGCAUCUACGGAUGCAGUGGCGGCAGCCUUCGGUGGCGCGAGAGCGCCAACGUUCUCUAGUAUGACACGCGAAACGCGUGCUCCGUUGAAUGGAGUUUAUCAUG [A28G A49U U56A A66U U90G A106U C108G A119G]
GGAUCUUCUCGAUCUAACAAAAAAGACGAAUCUGCCACAAAGCUUGAGAGCCUCAUCGGAUGCAGACGCGGCAGCCUUCGGUGGCGCGAUAGCGCCAACGUUCUCAACUAUGACACGCAAAACGCGUGCUCCGUUGAAUGGAGUUUAUGAUG [A28G A52C U55A G67C C149G]
GGAUCUUCUCGAUCUAACAAAAAAGACGAAUCUGCCACAAAGCUUGAGAGCCUCCUCGGAUGAAGAGGCGGCAGCCUUCGGUGGCGUGAUUGCGCCAACGUUCUCAACUAUGACACGCAAAACGCGUGCUCCGUUGAAUGGAGUUUAUCAUG [A28G A52C U55C C63A C87U A91U]
GGAUCUUCUCGAUCUAACAAAAAAGACGAAUCUGCCACAAAGCUUGAGAGCUUCUUCGGAUGCAGAGGCGGCAGCCUUCGGUGACGCGAUAGCGCCAACGUUAUCAACUAUGACACGCAAAACGCGUGCUCCGUUGAAUGGAGUUUAUCAUG [A28G A52U G84A C103A]
GGAUCUUCUCGAUCUAACAAAAAAGACGAAUCUGCCACAAAGCUUGAGAGCAUCUUCGGCUGCAGAGGCGGCAGCGUUCGGUGGCGCGAUAGCGCCAACGUUCUCAACUAUGACACGCAAAACGCGUGCUCCGUUGAAUGGAGUUUAUCAUG [A28G A60C C76G]
GGAUCUUCUCGAUCUAACAAAAAAGACGAAUCUGCCACAAAGCUUGAGAGCAUCUUCGGAUGCAGCGGCGGCAGCCUUCGGUGGCGCGAUAGCGCCAACGUUCUCAACUAUGACACGCAAAACGCGUGCUCCGUUGAAUGGAGUUUAUCAUG [A28G A66C]
GGAUCUUCUCGAUCUAACAAAAAAGACGAAUCUGCCACAAAGCUUGAGAGCAUCUUCGGAUGCAGAGGCGGCAGCCUUCGGUGGCGCGAUCGCGCCAACGUUCUCAACUAUGACACGCAAAACGCAUGCUCCGUUGAAUGGAGUUUAUCAUG [A28G A91C G126A]
GGAUCUUCUCGAUCUAACAAAAAAGACGAAUGUGCUACAAAGCUUGAGAGCAUCUUUGGAUGCAGAGGCGGCAGGCUUCGGUGGCGCGAUAGCGCCAACGUUCUCAACUAUGACACGCAAAACGCGUGCUCCGUUGAAUGGAGUUUAUCAUG [A28G C32G C36U C57U C75G]
GGAUCUUCUCGAUCUAACAAAAAAGACGAAUCUGUCACAAAGCUUGAGAGCAUCUUCGGAUGCAGAGGCGGCUGCCUUCGGUGGCGCGAUAGCGCCAACGUUCUCAACUAUGACACGCAAAACGCGUGCUCCGUUGAAUGGAGUUUAUCAUG [A28G C35U A73U]
GGAUCUUCUCGAUCUAACAAAAAAGACGAAUCUGCCACAAAGAUUGAGCGCAUCUUCGGAUGCAGAGGCGGCAGCCUUCGGUGGGGCGACAGCGCCAACGUUCUCAACUAUGACACGCAAAGCGCGUGCGCCGUUGAAUGGAGUUUAUCAUG [A28G C43A A49C C85G U90C A122G U130G]
GGAUCUUCUCGAUCUAACAAAAAAGACGAAUCUGCCACAAAGUUUGAGAGCAUCUUCGGAUGCAGAGGCGGCAGCCUUCGGUGGCGCGAUAGCGCCAACGUUCUCAACUAUGUCACACAAAACGCGUGCUCCGUUGAGUGGAGUUUAUCAUG [A28G C43U A113U G117A A138G]
